# Screen size: about 16,000 compounds; about 120 (0.75%) were called active. Roughly 4% stayed inconclusive and do not appear here. Calls come from the whole dose curve; as a rule, active = well fitted inhibition curve with a large enough effect; inconclusive = small, poorly fitted or top-dose-only effect; inactive = no such curve, though single readings can be large or run the other way. Some of the results follow.
# Target: Rap guanine nucleotide exchange factor 3 (Homo sapiens) (UniProt O95398)
# Test: Validation qHTS for antagonist of cAMP-regulated guanine nucleotide exchange factor 3 (EPAC1); note: nearly all actives have a fitted effect of over 75% in size
# Details: EPAC1 Rap1B-BODIPY-GDP exchange, fluorescence; activity change, negative = inhibition: at the top concentration
# In short: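 EPAC1 (100 nM) mixed with 250 nM RAP1B-BODIPY-GDP and 50 uM GDP; compounds in concentration series, 5 min at room temperature. Fluorescence (ex 480/em 540 nm) read every 5 min for 30 min; normalized to ATA control and DMSO.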
# Chain of UniProt O95398 (O95398 whole entry, looked up): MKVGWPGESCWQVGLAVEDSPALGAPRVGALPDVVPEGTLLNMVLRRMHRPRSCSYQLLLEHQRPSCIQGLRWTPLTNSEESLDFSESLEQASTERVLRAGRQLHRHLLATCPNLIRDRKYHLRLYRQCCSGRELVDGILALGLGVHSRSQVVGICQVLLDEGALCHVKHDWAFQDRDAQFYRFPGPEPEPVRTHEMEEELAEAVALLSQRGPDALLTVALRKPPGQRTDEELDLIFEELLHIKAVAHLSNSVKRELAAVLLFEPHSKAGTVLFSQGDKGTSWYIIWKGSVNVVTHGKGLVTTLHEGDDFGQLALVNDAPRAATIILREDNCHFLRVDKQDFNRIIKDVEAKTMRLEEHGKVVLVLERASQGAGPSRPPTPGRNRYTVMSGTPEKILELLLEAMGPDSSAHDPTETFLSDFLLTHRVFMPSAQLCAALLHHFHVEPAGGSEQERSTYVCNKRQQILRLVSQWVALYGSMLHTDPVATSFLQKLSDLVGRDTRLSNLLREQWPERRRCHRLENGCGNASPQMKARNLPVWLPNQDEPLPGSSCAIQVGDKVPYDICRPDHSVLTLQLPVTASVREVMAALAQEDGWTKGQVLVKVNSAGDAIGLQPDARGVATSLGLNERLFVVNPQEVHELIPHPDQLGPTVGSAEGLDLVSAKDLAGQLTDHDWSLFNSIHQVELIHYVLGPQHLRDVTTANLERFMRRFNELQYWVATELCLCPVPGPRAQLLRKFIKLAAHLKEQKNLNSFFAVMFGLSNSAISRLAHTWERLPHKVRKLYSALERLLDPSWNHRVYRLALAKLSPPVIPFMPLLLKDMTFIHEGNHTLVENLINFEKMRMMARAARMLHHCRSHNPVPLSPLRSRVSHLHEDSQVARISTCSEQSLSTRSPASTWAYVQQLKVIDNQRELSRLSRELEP
row,Compound,"activity change, negative = inhibition"
1,C=C1[C@@H](C)[C@H]2[C@H](Cc3ccccc3)NC(=O)[C@]23[C@H](OC(C)=O)/C=C/[C@](C)(O)C(=O)[C@@H](C)C/C=C/[C@H]3[C@@H]1O,inactive: 23%
2,CC(CN)CC(=O)O (stereo not given),inactive: 26.5%
3,C=C(C)[C@H]1Cc2c(ccc3c2O[C@@H]2COc4cc(OC)c(OC)cc4[C@@H]2C3=O)O1,inactive
4,COC(=O)C1=CCCN(C)C1,inactive
5,C=C(C)CN1CC[C@@]23c4c5ccc(O)c4O[C@H]2c2[nH]c4ccccc4c2C[C@]3(O)[C@@H]1C5,inactive: -11.4%
6,NCC(CC(=O)O)c1ccc(Cl)s1 (stereo not given),inactive: 14.7%
7,O=c1ccc2cc(O[C@H]3OC(CO)C(O)C(O)C3O)c(O)cc2o1 (stereo not given in full),inactive
8,O=C1/C(=C\c2ccccc2)C[C@@]2(O)[C@H]3Cc4ccc(O)c5c4[C@@]2(CCN3CC2CC2)[C@H]1O5,inactive: 12.8%
9,O=C(/C=C/c1ccc(Cl)cc1)N[C@@]12CCC(=O)[C@@H]3Oc4c(O)ccc5c4[C@@]31CCN(CC1CC1)C2C5,inactive: 33.9%
10,c1cc2cc(c1)C[n+]1ccc(c3ccccc31)NCc1ccc(cc1)CNc1cc[n+](c3ccccc13)C2,inactive: 1.4%
11,NC1=NC(=O)N2CC12 (stereo not given),inactive: -6.51%
12,CC(C)(c1ccc(OCC2CO2)cc1)c1ccc(OCC2CO2)cc1 (stereo not given),inactive
13,c1ccc(N2CCN(c3ccccc3)CC2)cc1,inactive: -18.6%
14,O=C(NC(=O)c1c(F)cccc1F)Nc1cc(Cl)c(OC(F)(F)C(F)C(F)(F)F)cc1Cl (stereo not given),inactive
15,NC[C@@H](CC(=O)O)c1ccc(Cl)cc1,inactive: 9.47%
16,CCOC(=O)c1cc2c(cn1)[nH]c1ccccc12,inactive
17,CNCC(=O)c1ccc(O)c(O)c1,inactive: 4.7%
18,C[C@]12CC[C@H]3[C@@H](CCC4=C(Cl)C(=O)CC[C@@]43C)[C@@H]1CC[C@@H]2O,inactive: 6.78%
19,CC1=C2C3OC(=O)[C@H](C)[C@H]3CC[C@@]2(C)C=CC1=O (stereo not given in full),inactive: 10.3%
20,H-YPFVEPI-OH,inactive: 26.3% [at 15.3 µM]
21,CC(C)CN1CC[C@@]2(CCCN(C(=O)Oc3ccccc3)C2)C1,inactive: 13.3%
22,NNC(N)=O,inactive: -9.96% [at 75.8 µM]
23,ClC1=C(Cl)[C@]2(Cl)[C@@H]3[C@H]4C[C@H]([C@@H]5O[C@H]45)[C@@H]3[C@@]1(Cl)C2(Cl)Cl,inactive: 9.22%
24,CC1(C)N(O)C(c2ccc(C(=O)O)cc2)=[N+]([O-])C1(C)C,inactive: 16.1%
25,C[C@@H](Cc1ccccc1)NCCC(c1ccccc1)c1ccccc1,inactive: 14.7% [at 75.8 µM]
26,OCC(O)Cc1ccc2c(c1)OCO2 (stereo not given),inactive: 20.6%
27,CC1=C2[C@H]3OC(=O)[C@@H](C)[C@@H]3CC[C@@]2(C)C=CC1=O,inactive: 11.7%

row,Compound,"activity change, negative = inhibition"
1,COP(=S)(OC)SCN1C(=O)c2ccccc2C1=O,inactive: 20.4%
2,CCCN(CCC)C1CCc2ccc(O)cc2C1 (stereo not given),inactive
3,O=[N+]([O-])c1c2ccccc2cc2ccccc12,inactive: 32.4% [at 320 µM]
4,CCC(C)C(=O)OC1C(O)C2C(CN3CC(C)CCC3[C@]2(C)O)C2C[C@]34O[C@@]5(O)C(OC(=O)C(C)(O)CC)CCC3(C)C5C(OC(C)=O)C(OC(C)=O)C4[C@@]21O (stereo not given in full),inactive: 11.4%
5,CCC(N)C(O)c1ccc(O)c(O)c1 (stereo not given),inactive: 15.6%
6,CCCC(=O)OC(C(Cl)(Cl)Cl)P(=O)(OC)OC (stereo not given),inactive: -11.8%
7,CC(C)CCON=O,inactive: 0.384%
8,C/C=C(\CC)C(=O)NC(N)=O,inactive: 19.7%
9,Oc1ccc2c3c1O[C@H]1c4c(c5ccccc5n4Cc4ccccc4)C[C@]4(O)[C@H](C2)N(CC2CC2)CC[C@@]314,inactive: -10.3%
10,H-YGGFLRKYPK-OH,inactive: 15.9% [at 15.3 µM]
11,Oc1ccc2c3c1O[C@H]1c4c(c5ccccc5n4Cc4ccccc4)C[C@@]4(O)C(C2)N(CC2CC2)CC[C@]314,inactive: 17.7%
12,COC1=CC(=O)OC(/C=C/c2ccccc2)C1 (stereo not given),inactive: 5.3% [at 320 µM]
13,CN(N=O)c1cc(O)ccc1O,inactive: 17.8% [at 75.8 µM]
14,COCC(C)N(C(=O)CCl)c1c(C)csc1C (stereo not given),inactive: 12.6%
15,Cc1nnc2n1-c1ccc(Cl)cc1C(c1ccccc1Cl)=NC2,inactive: -3.55%
16,CC(C)=CCN1CC[C@@]2(C)c3cc(O)ccc3C[C@@H]1[C@@H]2C,inactive: 14.6% [at 320 µM]
17,CC(N)Cc1c[nH]c2ccc(O)cc12 (stereo not given),inactive
18,CC(=O)O[C@H]1C[C@H](O[C@H]2[C@@H](O)C[C@H](O[C@H]3[C@@H](O)C[C@H](O[C@H]4CC[C@@]5(C)[C@H](CC[C@@H]6[C@@H]5C[C@@H](O)[C@]5(C)[C@@H](C7=CC(=O)OC7)CC[C@]65O)C4)O[C@@H]3C)O[C@@H]2C)O[C@H](C)[C@H]1O[C@@H]1O[C@H](CO)[C@@H](O)[C@H](O)[C@H]1O,inactive: 12.2%
19,O=C1CN=C(c2ccccc2)c2cc(Cl)ccc2N1CC1CC1,inactive: 5.97%
20,N[C@H](CCCCCP(=O)(O)O)C(=O)O,inactive
21,C#C[C@]1(OC(=O)CCCCCC)CC[C@H]2[C@@H]3CCC4=CC(=O)CC[C@@H]4[C@H]3CC[C@@]21C,inactive: -9.31%
22,C[C@H]1CCC[C@H](O)CCCCCc2cc(O)cc(O)c2C(=O)O1,inactive: -9.66%
23,O=C(CN1CCCCC1)c1ccccc1,inactive: 13.6%
24,C/C=C1/C[C@@H](C)[C@](O)(CO)C(=O)OCC2=CCN3CC[C@@H](OC1=O)C23 (stereo not given in full),inactive: 11.7%
25,N[C@@H](CCCCP(=O)(O)O)C(=O)O,inactive: -3.17%
26,CCOC(=O)[C@]12Cc3c(cc(OC)c(OC)c3OC)[C@H]1N(Cc1ccccc1)C(=O)c1ccccc12,inactive: 7.09%
27,COc1ccc2c3c1O[C@H]1[C@H](O)CC[C@H]4[C@@H](C2)N(C)CC[C@@]341,inactive: 20.9% [at 320 µM]

row,Compound,"activity change, negative = inhibition"
1,O=C1C=C2C(=CCOC2O)O1 (stereo not given),inactive: 4.96%
2,O=c1oc2ccccc2c(O)c1C(c1ccccc1O)c1c(O)c2ccccc2oc1=O,inactive: 22%
3,c1csc(C2(N3CCCCC3)CCCCC2)c1,inactive: 12.3%
4,CCOC(=O)[C@]12Cc3cc(OC)ccc3[C@H]1N(Cc1ccccc1)C(=O)c1cc(F)c(F)cc12,inactive: -17%
5,CC[C@@H]1CN2CC[C@@H]1C[C@H]2[C@H](O)c1ccnc2ccc(OC)cc12,inactive: 10.5%
6,C[C@]12N[C@H](Cc3ccccc31)c1ccccc12,inactive
7,O=C(N[C@@H]1N=C(c2ccccc2F)c2cccc3c2N(CC3)C1=O)c1cc2ccccc2[nH]1,inactive: -0.0787%
8,O=C1CCCN1CC#CCN1CCCC1,inactive
9,CC(C)(C)c1o[nH]c(=O)c1CC(N)C(=O)O (stereo not given),inactive: 4.34% [at 75.8 µM]
10,C=CCC1(C(C)CCC)C(=O)N=C(S)NC1=O (stereo not given),inactive: 16.8%
11,CCN(CC)C(C)C(=O)c1ccccc1 (stereo not given),inactive: -5.15%
12,COc1ccc2c(c1OC)C(=O)O[C@@H]2C1c2cc3c(cc2CCN1C)OCO3 (stereo not given in full),inactive: 15.9%
13,N#Cc1cccc(NC(=O)N2CC3(CCN(C(=O)Oc4ccccc4)CC3)C2)c1,inactive: 11.8%
14,CC(C)n1cnc2c(C(=O)N[C@H]3CN4CCC3CC4)cc(Cl)cc21,inactive: 4.54%
15,C[C@@H](Cc1ccccc1)N(C)C,inactive: 17%
16,CC(=O)N1CC2CC(C1)c1cccc(=O)n1C2 (stereo not given),inactive: 11.5%
17,CC(C)(O)[C@@H]1[C@H]2OC(=O)[C@@H]1[C@]1(O)C[C@H]3O[C@]34C(=O)O[C@H]2[C@@]14C (tested in a mixture with another compound),inactive: -2.7%
18,NC(N)=NCCCCCCCCCCN=C(N)N,inactive
19,CC1(C)C(C=C(Cl)Cl)C1C(=O)OC(C#N)c1cccc(Oc2ccccc2)c1 (stereo not given),inactive
20,O=C(O)[C@@H]1Cc2[nH]cnc2C(c2cccnc2)N1 (stereo not given in full),inactive: 8.89%
21,Oc1cc(Cl)ccc1Oc1ccc(Cl)cc1Cl,inactive: -19.4%
22,NCC(O)c1cccc(O)c1 (stereo not given),inactive: 2.95%
23,CC[C@@H](O)C(C[C@@H](C)N(C)C)(c1ccccc1)c1ccccc1,inactive: 29.3% [at 320 µM]
24,OC[C@@H]1CCCN2CCCC[C@@H]12,inactive: 13%
25,COc1cc(CC(C)N)cc(OC)c1OC (stereo not given),inactive: 14.5% [at 320 µM]
26,COc1ccc2[nH]cc(CCN(C(C)C)C(C)C)c2c1,inactive: 27.2% [at 320 µM]
27,Cc1ccc(Cl)c(O)c1,inactive: 25.3%

row,Compound,"activity change, negative = inhibition"
1,CN1C[C@@H](NS(=O)(=O)N(C)C)C[C@@H]2c3cccc4c3c(cn4C)C[C@H]21,inactive: 8.33%
2,C[N+](C)(C)CC#CCOC(=O)Nc1cccc(Cl)c1,inactive
3,C=C1C(=O)O[C@@H]2C[C@@H](C)[C@@H]3C=CC(=O)[C@@]3(C)[C@@H](O)[C@H]12,inactive: 18.1% [at 320 µM]
4,CC(=O)Oc1ccc(/C=C/c2cc(OC(C)=O)cc(OC(C)=O)c2)cc1,inactive: 11.9%
5,N#C/C(=C\c1ccc(O)cc1)C(=O)O,inactive: 18.7%
6,C=CCN1CCC23c4c5ccc(O)c4O[C@H]2C(=O)CC[C@@]3(O)C1C5 (stereo not given in full),inactive: -4.29% [at 75.8 µM]
7,CN1[C@@H]2CC[C@H]1CC(O[C@@H](c1ccccc1)c1ccc(Cl)cc1)C2 (stereo not given in full),inactive: 4.56%
8,CC(C)(O)C(Cl)(Cl)Cl,inactive: 11.2%
9,Oc1cccc2cccnc12,inactive
10,CCCCC(CC)COC(=O)c1ccccc1C(=O)OCC(CC)CCCC (stereo not given),inactive: 39.3% [at 320 µM]
11,O=C1C[C@@H]2OCC=C3CN4CC[C@]56c7ccccc7N1[C@H]5[C@H]2[C@H]3C[C@H]46 (tested in a mixture with another compound),inactive
12,CCCCc1ccc(C(=O)O)nc1,inactive
13,N[C@@H](Cn1ccc(=O)n(Cc2ccc(C(=O)O)cc2)c1=O)C(=O)O,inactive: -8.89%
14,COc1cc(OC)c2c(c1)OC(c1ccc(OC)c(OC)c1)C(O)C2 (stereo not given),inactive: 8.09%
15,Oc1ccc(Cl)cc1Cc1ccccc1,inactive
16,CC(C)N1C(=O)c2ccccc2NS1(=O)=O,inactive: 13.9%
17,COc1ccc2c(c1O)-c1c(OC)c(OC)cc3c1[C@@H](C2)N(C)CC3,inactive: -8.98%
18,CC[C@]1(O)C(=O)OCc2c1cc1n(c2=O)Cc2cc3ccccc3nc2-1,inactive: 6.98%
19,Oc1ccc2c3c1O[C@H]1c4[nH]c5c(c4C[C@@]4(O)[C@@H](C2)N(CC2CC2)CC[C@]314)C[C@@]1(O)[C@H]2Cc3ccc(O)c4c3[C@@]1(CCN2CC1CC1)[C@H]5O4,inactive
20,CCC1(c2ccccc2)CCC(=O)NC1=O (stereo not given),inactive: 15.9%
21,c1cc2ccc3cccc4ccc(c1)c2c34,inactive: 31.6% [at 320 µM]
22,C[C@@H]([C@H](O)c1ccccc1)N(C)C,inactive: 14.4%
23,COc1ccc2c3c1O[C@H]1[C@@H](O)C=C[C@H]4[C@@H](C2)N(C)CC[C@@]341,inactive: 19.6% [at 320 µM]
24,N#Cc1ccc(CN2CC[C@@]3(CCCN(C(=O)Oc4ccccc4)C3)C2)cc1,inactive: 0.985%

# — PubChem BioAssay AID1645882 (National Center for Advancing Translational Sciences (NCATS), 2021)
